Each structure is given as a SMILES string. This is one part of the list. Repeats are few or missing, and single values can be far off.

The assay concerns Candida albicans DPL-15. Put plainly: growth (OD600) after compound treatment (apparently relative to screen median) (relative growth (fraction; screen median 1.02)); DPL-15 is a caspofungin-resistant clinical isolate; higher = more fungal growth (less antifungal activity). Particulars: 25 µM; RPMI 1640; 48 h; 30 °C.
As for `COC(=O)c1nnc(C(C)=O)c2ccccc12`, the growth is 1.12.

As for `C/C=C/C=C/C(=O)c1cc(C)c(CCC(=O)OC)c(C)c1O`, the growth came out at 0.932.

As to `COc1cc([C@@H]2[C@@H](C(=O)NCC3CC3)[C@H](C(=O)NCC3CC3)[C@H]2c2ccc(O)c(OC)c2)ccc1O`, the growth was 1.02.

Turning to `CC[C@H](C)C(NC(=O)O[C@H]1C(=O)c2cc(OC)ccc2O[C@@H]1c1ccc(OC)c(Br)c1)C(=O)OC` (some centres not stated), the growth turned out to be 0.828.

With `CC(=O)C1=C2C=C([Si](C)(C)C)CCN2C(=O)NC1c1ccccc1` (configuration not stated), the growth came to 1.13.

In the case of `CCCCCOS(=O)(=O)NC(C)(C)c1ccccc1`, the growth came out at 1.15.

`CN1C(=O)[C@@]2(C3=C(CCCC3=O)Oc3c2c(=O)oc2ccccc32)c2ccccc21`: the growth was found to be 0.998.

`CCOc1ccc(-n2c(C)c3c(C)nnc(Nc4ccccc4)c3c2C)cc1`: the growth stood at 0.954.

In the case of `CCOc1ccccc1C1CC(=O)Nc2cc3c(cc21)OCO3` (configuration not stated), the growth came out at 0.993.

Take `c1ccc(CCN2CCCC(CN(Cc3ccccc3)Cc3ccccc3)C2)cc1` (configuration not stated): the growth was found to be 0.994.

For the compound `CC(C)=CCc1cc(O)c(O)c2oc3ccccc3c(=O)c12`, the growth is 0.718.

On to `COc1cc(OC)c2c(=O)c3ccc(OC)c(O)c3oc2c1`, for which the growth came out at 0.866.

Consider `COc1ccc(Cn2nc(-c3ccccc3)cc2Nc2cc(O)cc(O)c2C(=O)NCc2ccccc2)cc1`, for which the growth is 1.

In the case of `CCC(=O)Cc1cc(O)cc(O)c1C(=O)N(C)Cc1ccccc1`, the growth was found to be 1.22.

`CCCCCCC12C(=Cc3cc4c(cc31)OCCO4)c1cc(OC)c(OC)cc1C(CC(=O)OC)N2C(=O)OC` (configuration not stated): the growth worked out at 1.16.

Regarding `COc1cccc(C2NC(=S)N(CC(C)C)C(C)=C2C(C)=O)c1` (configuration not stated), the growth was 0.971.

Take `CC(C)(C)c1ccc2c(c1)[C@]1(Cc3occc(=O)c3OS(C)(=O)=O)CCCCC1=N2`: the growth was 0.998.

Turning to `COc1cc([C@@H]2[C@@H](C(=O)NC3CCCC3)[C@@H](C(=O)NC3CCCC3)[C@@H]2c2ccc(O)c(OC)c2)ccc1O`, the growth is 1.06.

Consider `C=CCC[C@@H](O)COc1cc2c(cc1C1(c3cc4c(cc3OC[C@H](O)CCC=C)OCO4)C(=O)Nc3ccc(C)cc31)OCO2`, for which the growth was found to be 1.16.

For the compound `COc1ccc(Cn2nc(-c3ccccc3)cc2N)cc1`, the growth was determined as 0.957.

`CC(C)CC1=NCCNC2=C1C(c1ccc3c(c1)OCO3)N(c1ccccc1)C2=O` (configuration not stated): the growth stood at 0.938.

Turning to `CC(=O)OC[C@]12CC[C@@H](C(C)=O)[C@@H]1[C@H]1CC[C@@H]3[C@@]4(C)CC[C@H](O)[C@](C)(O)[C@@H]4CC[C@@]3(C)[C@]1(C)CC2`, the growth came to 1.15.

For `C#CCOc1cccc(CNC(=O)C2CCCN(CCc3ccccc3C)C2)c1` (configuration not stated), the growth worked out at 1.19.

Turning to `CC(C)CCc1cc(OCC(=O)O)cc2oc3ccccc3c(=O)c12`, the growth stood at 1.03.

As to `COc1ccc([C@@]23Oc4cc(OC)cc(OC)c4[C@]2(O)[C@H](O)[C@H](C(=O)c2ccc(C)o2)[C@H]3c2ccccc2)cc1`, the growth worked out at 1.14.

On to `O=C(Nc1ncccc1OCc1ccccc1)OCC(Cl)(Cl)Cl`, for which the growth turned out to be 1.03.

As to `Cn1nc(-c2ccccc2)c2c1C(=O)N(c1ccccc1)C2c1ccc2c(c1)OCO2` (configuration not stated), the growth was determined as 0.954.

Consider `CCCCCCC12C(=Cc3cc4c(cc31)OCCO4)c1cc(OC)c(OC)cc1C(CCO)N2C` (configuration not stated), for which the growth is 1.13.

Regarding `C/C=C/C=C/C(=O)c1cc(C)c(O)c(C)c1O`, the growth stood at 0.713.

`COc1cc(/C=C/c2cc(/C=C/c3ccc(O)c(OC)c3)[nH]n2)ccc1O`: the growth was 1.06.

With `CCC1=C(C(=O)OC)C(c2ccccc2)NC(=O)N1` (configuration not stated), the growth turned out to be 1.22.

As to `Cc1cc(Nc2cc(O)cc(O)c2C(=O)N2CC[C@H](F)C2)n(C)n1`, the growth was 1.16.

`COC(=O)C1=C[C@H]([C@@H](C)[C@H](OC)c2ccccc2Br)[C@H]2c3ccccc3O[C@@H]12`: the growth was determined as 1.17.

In the case of `CO[C@H]1CCN(C(=O)c2c(O)cc(O)cc2Nc2c(C)nn(C)c2C)C1`, the growth was 1.18.

As to `COc1ccc(O)c2c(=O)n(C)c(C)cc12`, the growth was found to be 1.21.

As for `CC(C)(C)NS(=O)(=O)N(CCC1CCCC1)C(=O)OC(C)(C)C`, the growth was 1.1.

Take `c1ccc([C@@H]2CC(c3ccccc3)(c3ccccc3)Oc3cc4c(cc32)OCO4)cc1`: the growth worked out at 0.95.

For the compound `C/C=C/C=C/C(=O)c1c(O)c(C)c(O)c(C)c1-c1c(O)cc(C)oc1=O`, the growth turned out to be 1.09.

Consider `O=c1c2ccccc2oc2cc(O)cc(O)c12`, for which the growth was found to be 0.843.

As for `COc1ccc([C@H]2O[C@@H](c3ccc4c(c3)OCO4)[C@@H](C)[C@H]2C)cc1OC`, the growth is 0.944.

Take `CO[C@@H]1[C@H](O)CC[C@]2(O)CN(CCCOC(C)C)[C@](C)([C@H](O)CC=C(C)C)[C@@H]12`: the growth came to 1.07.

Regarding `C#CCC(C)(C)CNC(=O)CC1(CNC(=O)c2cccc(/C=N/N=C/c3cccc(C(=O)NCC4(CC(=O)NCC(C)(C)CC#C)CCCCC4)c3)c2)CCCCC1`, the growth is 1.19.

`COC(=O)C1=C(C)N(Cc2ccc(C(F)(F)F)cc2)C(NCCCOC(C)C)=NC1c1ccc(Cl)cc1` (configuration not stated): the growth was found to be 0.989.

Take `Nc1c(-c2ccc(F)nc2)cnc2c(-c3ccc(Cl)cc3)cnn12`: the growth amounted to 1.17.

Regarding `COC(=O)C1=C(C)N(CCc2cccs2)C(NCc2ccccc2)=NC1c1ccc(C)cc1` (configuration not stated), the growth stood at 1.19.

Take `Cc1cc(Cl)nc(CCCc2ccccc2)c1`: the growth stood at 1.13.

Take `Cc1ccc(S(=O)(=O)N2CCCC3OCCCC3=C2c2cccs2)cc1` (configuration not stated): the growth is 0.967.

As to `Cc1nn(C)c2c1C(c1ccc(Br)cc1)NC2=O` (configuration not stated), the growth amounted to 1.04.

Take `COc1ccc(N2C(=O)c3[nH]nc(CC(C)C)c3C2c2ccccc2)cc1` (configuration not stated): the growth was 0.822.

`C#CCC(C)(C)CNC(=O)CC1(CNC(=O)Cn2cccc2/C=N/NS(=O)(=O)c2ccc(C)cc2)CCCCC1`: the growth stood at 1.01.

As to `COc1ccc(Cn2nc(C)cc2Nc2cc(O)cc(O)c2C(=O)N2Cc3ccc(OCCN(C)C)cc3C2)cc1`, the growth came out at 1.15.

On to `Cc1cc(C)cc(-n2nc(CC(C)C)c3c2C(=O)NC3c2ccc(Br)cc2)c1` (configuration not stated), for which the growth was found to be 0.948.

Take `CC(C)(C)c1ccc(C#C[C@@H]2C=C[C@@H](OC(=O)NCc3ccccc3)[C@@H](CO)O2)cc1`: the growth came to 1.05.

In the case of `COc1ccc2c(c1)-c1c(OC)cc(OC)c3c1C(C)(O2)Oc1ccc(OC)cc1-3`, the growth was determined as 1.09.

Take `COCOc1ccc(Br)cc1C(=O)/C=C/c1ccc2c(c1)OCO2`: the growth was 1.08.

`CCc1cc2c(nc1CC)CCCN2S(=O)(=O)c1c(C)noc1C`: the growth amounted to 0.914.

Take `C=CCNC1=NC(c2ccccc2)C(C(=O)OC)=C(C)N1C` (configuration not stated): the growth is 0.997.

For the compound `COc1ccc(N2C(=O)c3[nH]nc(CC(C)C)c3C2C2CCCCC2)cc1F` (configuration not stated), the growth amounted to 1.21.

Regarding `COc1ccccc1Cn1nc(C(C)C)c2c1C(=O)NC2c1cccc(C(F)(F)F)c1` (configuration not stated), the growth was 0.967.

Regarding `CC1(C)CN=C(c2ccccc2)C2=C(N1)C(=O)N(c1ccccc1)C2c1ccccc1` (configuration not stated), the growth was found to be 1.08.

For `COc1ccc([C@@]23Oc4cc(OC)cc(OC)c4[C@]2(O)[C@H](O)[C@H](C(=O)N(C)OC)[C@H]3c2ccsc2)cc1`, the growth stood at 1.16.

Turning to `CCOc1cc2c(cc1C1(c3cc4c(cc3OCC)OCO4)C(=O)Nc3cc(F)ccc31)OCO2`, the growth stood at 0.892.

As for `CN(Cc1ccccc1)CC1CCCN(CCc2ccccn2)C1` (configuration not stated), the growth amounted to 1.01.

For `C=C1CC[C@@H]2[C@H](C(=O)C(C)C)C3=C(O[C@@]2(C)CC[C@@H]2[C@@H]1CC2(C)C)C(C)(C)C(=O)C(C)(C)C3=O`, the growth came out at 0.953.

As for `COc1ccc(CCn2ccc(N)n2)cc1`, the growth turned out to be 1.07.

For the compound `O=C1CC2(CCCCC2)CNC(=O)c2cccc(c2)/C=C/C=C\CCCCCN1`, the growth was 1.11.

For the compound `CC(=O)C1=C2C=CCCN2C(=O)NC1c1cc(F)ccc1C` (configuration not stated), the growth is 0.993.

For `C#CCOC[C@@H](NC(=O)CC1(CN)CCCCC1)c1ccccc1`, the growth was 1.22.

In the case of `C[C@@H]1CC2=CCC[C@H]2[C@]2(O1)C(=O)Nc1cccc(Br)c12`, the growth amounted to 0.955.

For the compound `Cc1ccc(C2NC(=O)c3c2c(CC(C)C)nn3-c2ccccc2)cc1` (configuration not stated), the growth was determined as 1.14.

As for `CC1(C)c2ccccc2O[C@H]2c3ccccc3C[C@H]21`, the growth amounted to 1.

As for `O=C1NC(c2ccc3c(c2)OCO3)c2c1nn(-c1ccc(F)cc1)c2-c1ccccc1` (configuration not stated), the growth was found to be 0.858.

As for `CS(=O)(=O)Oc1c(C[C@@]23CCCCC2=Nc2ccc(Br)cc23)occc1=O`, the growth was 1.11.

For the compound `COc1ccc(C(=O)Nc2ccc(CCN3CCc4cc(OC)c(OC)cc4C3)cc2)c(N)c1`, the growth was found to be 1.1.

Turning to `Cc1ccc(C#C[C@@H]2C=C[C@H](Oc3ccc4c(c3)OCO4)[C@@H](CO)O2)c(C)c1`, the growth was determined as 0.877.

For the compound `CO/N=C(\c1ccco1)[C@H]1[C@@H](O)[C@@]2(O)c3c(OC)cc(OC)cc3O[C@@]2(c2ccc(OC)cc2)[C@@H]1c1ccccc1`, the growth amounted to 1.69.

On to `CC1(C)OC(=O)c2c(CCCN(CCCCOc3ccc(CN4CCCC4)cc3)CCc3ccccc3)cccc2O1`, for which the growth was found to be 0.908.

Consider `COC(=O)[C@@]12Oc3ccc(C4=CCN(C(=O)OC(C)(C)C)CC4)c(O)c3C(=O)C1=C(N)C[C@H](C)[C@H]2O`, for which the growth amounted to 1.02.

Take `CC(=O)OC[C@H]1O[C@H](c2ccc(C(C)=O)cc2)C=C[C@@H]1OC(C)=O`: the growth is 1.05.

Take `CC1=CC2Oc3cccc(O)c3C(=O)C2C(O)=C1` (configuration not stated): the growth came to 1.12.

On to `COc1ccc(N2C(=O)c3[nH]nc(CC(C)C)c3C2c2ncccc2Cl)cc1` (configuration not stated), for which the growth came out at 1.07.

In the case of `CC(=O)OC[C@H]1O[C@H](c2ccc(F)cc2)C=C[C@H]1OC(C)=O`, the growth worked out at 0.884.

(Values after the supplement of paper PMC10986608.)
